Measured values: the antibiotic and cytotoxicity screens of Wong et al. (2023)
Some of the results follow.

The molecules below were run on HepG2 (assay: cytotoxicity call (relative viability < 0.9)). Conditions: 10 µM.

Compound | cytotoxicity call
CC(C)NC(=O)N(C)C[C@H]1Oc2ccc(NS(=O)(=O)c3ccccc3)cc2C(=O)N([C@H](C)CO)C[C@H]1C | inactive
CC(C)[C@@H](CS(=O)(=O)C(C)C)N1C(=O)[C@@](C)(CC(=O)O)C[C@H](c2cccc(Cl)c2)[C@H]1c1ccc(Cl)cc1 | inactive
Cc1cn2c(nc1=O)O[C@@H]1C[C@H]2O[C@@H]1CO | inactive
COc1ccccc1CNC(=O)C[C@H]1C[C@@H]2c3cc(NC(=O)Nc4ccc(C(F)(F)F)cc4)ccc3O[C@@H]2[C@@H](CO)O1 | inactive
C[C@@H]1CN([C@H](C)CO)C(=O)Cc2cc(NC(=O)CCC(F)(F)F)ccc2O[C@H]1CN(C)Cc1ccc(C(=O)Nc2ccccc2N)cc1 | inactive
COCC(=O)N1CC[C@]2(CC1)CN([C@@H](CO)c1[nH]c3cc(ccc3c12)OC)S(=O)(=O)C | inactive
C[C@H]1CN([C@@H](C)CO)S(=O)(=O)c2ccc(C#CC3(O)CCCC3)cc2O[C@@H]1CN(C)C(=O)c1ccncc1 | inactive
COc1ccc(NC(=O)Nc2ccc3c(c2)C(=O)N([C@H](C)CO)C[C@H](C)[C@@H](CN(C)CC2CC2)OCCCC[C@@H](C)O3)cc1 | inactive
CN(C)Cc1c(C(=O)N/N=C/c2ccncc2)nnn1-c1nonc1N | active
C[C@H](CO)N1C[C@H](C)[C@H](CN(C)C(=O)NC2CCCCC2)Oc2c(NC(=O)Nc3cccc4ccccc34)cccc2C1=O | inactive
C[C@@H]1CN([C@H](C)CO)C(=O)c2c(c3ccccc3n2C)-c2ccccc2CO[C@H]1CN(C)S(C)(=O)=O | inactive
CC(C)NC(=O)N(C)C[C@H]1Oc2ccc(NC(=O)NC3CCCCC3)cc2C(=O)N([C@@H](C)CO)C[C@@H]1C | inactive
C[C@H](CO)N1C[C@H](C)[C@H](CN(C)Cc2ccncc2)Oc2ccc(NS(=O)(=O)c3ccc(F)cc3)cc2CC1=O | inactive
COc1ccc(NC(=O)N(C)C[C@@H]2Oc3c(NS(C)(=O)=O)cccc3C(=O)N([C@@H](C)CO)C[C@H]2C)cc1 | inactive
O=C(NO)c1ccc(C(=O)N/N=C/c2ccc(B(O)O)cc2)cc1 | inactive
C[C@@H]1CN([C@@H](C)CO)C(=O)c2cc(NC(=O)Nc3ccc(C(F)(F)F)cc3)ccc2O[C@@H]1CN(C)Cc1ccc(C(=O)O)cc1 | inactive
O=C(CN1CCOCC1)NCC[C@@H]1CC[C@@H](NC(=O)c2ccccc2F)[C@H](CO)O1 | inactive
COc1ccc(CN(C)C[C@H]2OCCCC[C@@H](C)Oc3ccc(NC(=O)Nc4ccccc4)cc3C(=O)N([C@@H](C)CO)C[C@H]2C)cc1 | active
CN(C)CCCNC(=O)C[C@@H]1CC[C@H]2[C@@H](COc3ccc(NS(C)(=O)=O)cc3C(=O)N2C)O1 | inactive
C[C@H](CO)N1C[C@H](C)[C@H](CN(C)S(=O)(=O)c2cccs2)Oc2c(NS(=O)(=O)c3cccs3)cccc2C1=O | inactive

Compound | cytotoxicity call
Cc1noc(C)c1S(=O)(=O)Nc1ccc2c(c1)CC(=O)N([C@H](C)CO)C[C@@H](C)[C@H](CN(C)S(=O)(=O)c1ccc(F)cc1)O2 | inactive
C[C@@H]1CN([C@H](C)CO)C(=O)c2cc(NC(=O)Nc3ccc(C(F)(F)F)cc3)ccc2O[C@@H](C)CCCCO[C@@H]1CN(C)Cc1ccc(C(=O)O)cc1 | inactive
C[C@@H]1CN([C@H](C)CO)C(=O)c2cc(NC(=O)Nc3cccc4ccccc34)ccc2O[C@@H]1CN(C)C(=O)NC1CCCCC1 | inactive
NC(=O)c1nnn(Cc2ccccc2)c1N | inactive
C[C@H]1CN([C@@H](C)CO)C(=O)Cc2cc(NS(=O)(=O)c3cn(C)cn3)ccc2O[C@@H]1CN(C)Cc1ccncc1 | inactive
C[C@@H]1CN([C@H](C)CO)C(=O)c2cc(N(C)C)ccc2O[C@@H](C)CCCCO[C@@H]1CN(C)S(C)(=O)=O | inactive
C[C@@H]1CCCCO[C@H](CN(C)C(=O)Nc2ccccc2)[C@H](C)CN([C@@H](C)CO)C(=O)c2cc(NS(=O)(=O)c3ccc(F)cc3)ccc2O1 | inactive
N[C@@]1(C(=O)O)CS(=O)(=O)[C@H]2[C@H](C(=O)O)[C@H]21 | inactive
C[C@@H]1CN([C@H](C)CO)C(=O)c2cc(NS(C)(=O)=O)ccc2O[C@H]1CN(C)C(=O)Nc1ccc2c(c1)OCO2 | inactive
COc1ccc(NC(=O)Nc2cccc3c2O[C@@H](CN(C)C(=O)Nc2ccc(C(F)(F)F)cc2)[C@H](C)CN([C@@H](C)CO)C3=O)cc1 | inactive
CC(C)(C)S(=O)N1Cc2cc(C(=O)N3CCN(Cc4ccccc4)CC3)nc(-c3cccc(-c4cc5ccccc5o4)c3)c2[C@H]1CCO (stereo not given in full) | active
O=C(C[C@@H]1CC[C@@H]2[C@H](COC[C@H](O)CN2S(=O)(=O)c2ccccc2)O1)NCc1ccc2c(c1)OCO2 | inactive
C[C@@H]1CCCCO[C@H](CN(C)C(=O)c2ccccc2)[C@H](C)CN([C@H](C)CO)C(=O)c2cc(NC(=O)c3ccccc3)ccc2O1 | inactive
Cn1nnc2c(Cl)ncnc21 | inactive
Cc1noc(C)c1NC(=O)Nc1ccc2c(c1)C(=O)N([C@H](C)CO)C[C@H](C)[C@H](CN(C)C(=O)c1ccccc1)OCCCC[C@@H](C)O2 | inactive
C[C@H]1CN([C@@H](C)CO)C(=O)c2cccc(NC(=O)Nc3ccc(C(F)(F)F)cc3)c2O[C@@H]1CN(C)Cc1ccccc1 | inactive
COc1ccc(NC(=O)N(C)C[C@@H]2OCCCC[C@H](C)Oc3ccc(NC(=O)Nc4ccc(F)cc4)cc3C(=O)N([C@H](C)CO)C[C@@H]2C)cc1 | inactive
COc1ccc(C#Cc2ccc3c(c2)[C@H]2[C@H](CCN2C(=O)Nc2ccc(C(F)(F)F)cc2)[C@H](CO)N3C)cc1 | inactive
Cc1ccc(S(=O)(=O)N(C)C[C@@H]2OCCCC[C@H](C)Oc3ccc(NS(=O)(=O)c4ccc(Cl)cc4)cc3C(=O)N([C@@H](C)CO)C[C@@H]2C)cc1 | active
CN(CCN)c1ccccc1 | inactive
